# Assay results as given in the supplement of paper PMC3334620.
# Whole data set: some 33,000 sequences, median “E-score (-0.5 to 0.5)” near -0.036, cut for the highest 2% near 0.37. Some of the results follow.
# Biological target: T1, Yer064c (UniProt P40041)
# T1 sequence: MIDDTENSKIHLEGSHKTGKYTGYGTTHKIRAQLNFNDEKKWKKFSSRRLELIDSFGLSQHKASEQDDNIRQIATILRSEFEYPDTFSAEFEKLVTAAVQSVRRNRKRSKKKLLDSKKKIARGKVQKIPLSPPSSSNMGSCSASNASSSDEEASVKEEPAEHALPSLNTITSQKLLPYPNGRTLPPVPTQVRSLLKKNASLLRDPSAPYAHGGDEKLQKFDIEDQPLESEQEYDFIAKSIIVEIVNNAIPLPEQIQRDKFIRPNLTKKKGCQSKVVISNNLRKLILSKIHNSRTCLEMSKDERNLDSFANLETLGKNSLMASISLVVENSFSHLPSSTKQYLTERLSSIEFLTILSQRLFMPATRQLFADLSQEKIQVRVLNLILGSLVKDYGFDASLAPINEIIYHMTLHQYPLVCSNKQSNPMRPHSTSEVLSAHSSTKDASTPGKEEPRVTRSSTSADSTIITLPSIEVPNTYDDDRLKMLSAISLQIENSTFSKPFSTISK
# Assay: PBM E-score (8-mer binding enrichment) (E-score (-0.5 to 0.5)); higher = stronger / more preferred TF binding; most listed sequences are background and not binding sites
# Conditions: protein concentration: 200 nM; construct: GST-full length
# Method in brief: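 Using PURExpress in vitro transcription/translation, GST-tagged yeast transcription factors were made in full-length or DNA-binding-domain form. These were applied at about 100-200 nM to double-stranded universal all-10-mer Agilent arrays, and bound protein was detected with fluorescent anti-GST. Scans were normalised with masliner before the Universal PBM Analysis Suite assigned E-scores to ungapped eight-base words pooled with their reverse complements.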
row,Sequence,PBM E-score
1,CCTACAGA,-0.167
2,AATGGGGT,0.0509
3,CTGGAGCC,-0.0587
4,CAGATCTC,0.0969
5,AGGCTCCC,-0.128
6,ATTTAGGC,-0.117
7,ACCAAAAA,0.186
8,AACCAAAC,-0.128
9,AGCACACC,-0.313
10,GAGTGAAA,0.0483
11,GACGTCTC,-0.196
12,ATCGTGCC,-0.0553
13,ATCTAGGG,0.0526
14,TCCAACCA,-0.132
15,CTGAGCAA,0.0639
16,CCTTGCAC,-0.156
17,ATTGCCAC,-0.0273
18,AGCGATTA,0.234
19,GAGCGTAC,-0.0764
20,GAACGTTC,-0.0614
21,AGCCGAAG,-0.203
22,CCGTGGCC,-0.352
23,ATCCATGA,0.216
24,CAGGACCA,-0.238
25,CTGAAAAG,-0.134

row,Sequence,PBM E-score
1,ATTATCCC,0.013
2,ATGCGCAA,-0.00074
3,ACCAGCTA,-0.127
4,ACTGCCCA,-0.0656
5,CGTGAAAG,-0.0317
6,CCATAGGG,-0.112
7,CTAAGTGC,-0.0386
8,CGTCATTC,-0.0565
9,TGCAAGCA,-0.205
10,GTCTGCGA,-0.036
11,AGATGATC,0.186
12,AGTCGTCG,0.375
13,CATGCCTC,0.0739
14,CATGCTCA,0.132
15,AGCCTTCG,0.0228
16,CTAGCGGC,-0.241
17,CAGGCAGA,-0.00699
18,GTAGCTAA,-0.173
19,AGAGGGTG,-0.0641
20,AGTAGGCC,-0.203
21,AACTGGTC,-0.131
22,GCCGCGTA,-0.109
23,CGAGGATA,-0.129
24,GAAGCGAC,-0.017
25,AAGCCTAT,-0.174

row,Sequence,PBM E-score
1,ATCGTGGA,-0.0223
2,GCCTCAAA,-0.224
3,AACCAAGG,-0.124
4,AAAGGCGT,-0.261
5,GCTAAACA,0.141
6,CTATGCCA,-0.0441
7,CTGCAGGC,-0.18
8,CAACCACG,0.137
9,GGTTATAA,-0.187
10,CCTTACCC,0.0208
11,CATACGAG,-0.114
12,AATACCCT,-0.16
13,CTTCTATA,0.0181
14,GCGCAGGA,-0.0398
15,AAAGCTTG,-0.187
16,GGGTTCTA,-0.193
17,AGTGAGGA,-0.0132
18,AAAAGCCC,-0.253
19,CCCGCACA,-0.175
20,AAGGTTGT,-0.113
21,TTAACTAA,0.138
22,GCAAAGTA,-0.0902
23,TCCCCACA,-0.134
24,AACCTGGG,-0.206
25,AAATTCTA,-0.214

row,Sequence,PBM E-score
1,CCGGTATA,0.072
2,ACGGATCA,0.14
3,AGTCAATA,0.383
4,GCTTTGCC,-0.279
5,AGCGGCGA,-0.0237
6,GCTTCCAA,-0.157
7,CCCACCCG,0.0275
8,AACTTCGT,-0.188
9,ATGTACTC,0.179
10,ACCCAATG,0.0243
11,ACGGCATC,-0.204
12,GTTTTTGA,0.187
13,GTTGTGCA,-0.143
14,AAGACGGT,-0.231
15,CCGGTGGC,-0.184
16,AGCCTCAA,-0.187
17,GCCTTCTA,-0.287
18,ACCTTATC,-0.0879
19,ACAGGCAG,0.157
20,ACACCTGA,0.0287
21,AAGGAATC,0.122
22,GTTAGCGA,0.0957
23,ATGCTTCC,-0.11
24,ATTACCCG,0.0405
25,CTCCGCTC,-0.245

row,Sequence,PBM E-score
1,ACACGGCA,-0.11
2,TCAGCTCA,0.144
3,CATCAATG,0.0157
4,CTGTTCAC,-0.105
5,CACTGACA,0.0352
6,AAAGTCTG,-0.0331
7,CTCCGGTA,-0.0507
8,GCAGGGGC,-0.231
9,GTCTGATA,-0.0653
10,AGAAACCG,-0.116
11,CGCTCTAC,-0.128
12,CAGCGCAC,-0.124
13,ATTGCCGG,-0.217
14,AGGCTCGG,-0.141
15,TATTGGAA,-0.0853
16,ACTTTACA,0.00299
17,CCCGACTA,0.314
18,CGGATAAA,0.0163
19,TCGGGAAA,-0.00439
20,GTCTAATA,0.0559
21,AAACGCAT,-0.14
22,TATGATAA,0.137
23,ATTTGACA,0.174
24,CCATCCGA,0.161
25,ATAATCAA,0.269

row,Sequence,PBM E-score
1,CGGCGGAG,0.00393
2,GCAATTTA,-0.0541
3,AGAGTGCC,-0.159
4,CTAAGGGC,0.00672
5,AAAGTAGA,0.062
6,GATCGCTA,-0.333
7,GCACTGGA,0.0647
8,CTCGACGA,-0.0175
9,CCTGCTCG,-0.315
10,GCCAATCC,-0.228
11,CTCAGGGA,-0.0606
12,ATGCGGCA,-0.212
13,ACGTATAG,0.0423
14,GACTAAAA,0.429
15,AACTTACC,-0.0315
16,CTAACAAC,0.044
17,GTTTCCAA,-0.0568
18,ATAGGATA,-0.268
19,ATGCGCAG,-0.196
20,GGGTCAAA,-0.0891
21,AGTCCCTA,0.162
22,CGGGGCGC,-0.284
23,ACGGCGGG,-0.0298
24,GGAGCAAA,-0.0323
25,TTCAGAAA,-0.0758

row,Sequence,PBM E-score
1,CAAGCCTC,-0.0532
2,CCAAACCC,-0.148
3,ATGTAATG,0.119
4,AACAGGCC,-0.292
5,AAGTTTCG,-0.0453
6,AAGTGATA,-0.108
7,TAATTGGA,0.0568
8,ACCTCAAT,-0.0727
9,CGATCAGA,-0.00178
10,CGAATATA,-0.0703
11,AGTACTTG,0.106
12,CTCCAGGA,0.111
13,GCCGATAA,-0.264
14,CGGGCACA,-0.212
15,CACGGAGA,-0.13
16,AACATGTT,-0.0253
17,TAAAATCA,0.282
18,CGACCGCC,-0.228
19,AATATCGA,0.0795
20,CTCATATA,0.0515
21,CGCATCCC,-0.317
22,GTTAAGTA,0.0558
23,AAACTATT,-0.145
24,GATCCGGC,-0.0809
25,CGCCGGTA,-0.138

row,Sequence,PBM E-score
1,CACGGGAG,-0.133
2,CAGCCGAA,-0.0452
3,ACGGGCCT,-0.363
4,CGCGAAAC,0.0297
5,CGTACGTA,0.0559
6,AGCGCAGA,-0.146
7,GCATTCCA,-0.265
8,AAAACTAA,0.134
9,ATGGTGAA,-0.203
10,CTGATGCA,0.0201
11,ATGAATCC,0.253
12,ATCTTTAG,0.102
13,ACAGCGAT,-0.101
14,CGTCCTGC,-0.214
15,CGATGACC,0.216
16,CCGATGAC,0.266
17,CCACTCGG,-0.312
18,TATACGCA,-0.00117
19,AGTCGCGC,0.356
20,CAAACAGA,0.0255
21,ATTCCGCC,-0.0602
22,ACCAATTC,-0.024
23,CGGCTCCA,-0.165
24,CCAGTGCG,-0.191
25,CATGTTGC,-0.0111

row,Sequence,PBM E-score
1,ATCTAGGA,0.0758
2,ATGATAAG,0.0215
3,AATAAGGT,-0.11
4,ACAAGCGT,-0.138
5,GCAGGAGA,-0.186
6,ACCACTTA,0.0242
7,CAGGTCGG,-0.196
8,GACCCAGC,-0.146
9,CTTATTGA,0.255
10,CTATCCGC,0.00533
11,ATACTACG,-0.0971
12,AGCGGGCG,-0.377
13,CAGCCATC,-0.0368
14,GCGTCTAC,-0.229
15,ACCCGTAT,-0.133
16,AGATTCTA,-0.047
17,CAAAGTAC,0.155
18,CACGAATA,0.0279
19,AATTAAAC,0.156
